About 60 (0.1%) of roughly 46,000 compounds were called active. Roughly 3% stayed inconclusive and do not appear here. The call rests on the fitted dose curve; in most records, active means well fitted inhibition curve with a large enough effect; inconclusive means small, poorly fitted or top-dose-only effect; inactive means no such curve, though single readings can be large or run the other way. This is one part of the list.
Assay: Primary qHTS assay for Inhibitors of ovarian cancer metastasis using an organotypic tumor microenvironment (TME) model. Further: nearly all actives have a fitted effect of over 65% in size.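 On activity change, negative = inhibition: plate controls were DMSO wells for no effect and tomatine positive control wells for full effect.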
Conditions: SKOV3ip1-GFP adhesion/invasion on 3D omental model, fluorescence; series mostly up to 45.8 µM; activity change, negative = inhibition: at the top concentration
Outline: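 qHTS, 4-pt dose (0.36-46 umol/L); SKOV3ip1-GFP, 1,200 cells/well, no FBS; primary omental fibroblast/mesothelial co-culture 48 h pre-grown; 2 h RT + 16 h 37 C; PBS wash, 4% PFA; GFP count 488/509 nm.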

| SMILES | activity change, negative = inhibition | outcome |
| --- | --- | --- |
| Cc1ccc(NC(=O)c2oc3ccc(S(=O)(=O)N4CCOCC4)cc3c2C)c(C)c1 | inactive: -4.57% | – |
| COc1ccc(CNC(=O)Cc2coc3ccc(C)cc23)cc1 | inactive: -2.48% | – |
| CCOC(=O)c1c(C)n(C)c2ccc(O)cc12 | inactive: 9.25% | – |
| O=C(C=Cc1cccc(S(=O)(=O)Nc2ccccc2)c1)NO | inactive: -4.68% [at 92.2 µM] | – |
| O=C(CCS(=O)(=O)c1nc(-c2ccc3c(c2)OCO3)cc(C(F)(F)F)n1)Nc1ccc(Br)cc1 | – | inactive |
| COc1ccc(NC(=O)Cc2c(C(=O)O)[nH]c3ccccc23)cc1OC | inactive: 0.255% | – |
| CCN(c1ccccc1C)S(=O)(=O)c1nnc(NC(=O)c2ccccc2C)s1 | inactive: 0.305% | – |
| COc1cc(NC(=O)N2CCSc3ccccc32)cc(OC)c1OC | inactive: -0.175% | – |
| CC(C)Oc1ccc(CNC(=O)c2ccc3c(c2)nc2n3CCOC2)cc1 | inactive: -1.75% | – |
| Cc1nn(C(=O)c2c(F)cccc2F)c(C)c1S(=O)(=O)N1CCCCCC1 | inactive: 1.53% | – |
| CCOc1ccc(OCC)c(NC(=O)C2CCCN(S(=O)(=O)c3cc(Br)cc4c3N(C(=O)CC)CC4)C2)c1 (centres undefined) | inactive: -7.77% | – |
| Cc1nc2nc(C)c(NS(=O)(=O)c3ccc(CC(C)C)cc3)c(=O)n2[nH]1 | inactive: -5.87% | – |
| CCCc1nnc(NC(=O)Nc2ccccc2Cl)s1 | inactive: 2.46% | – |
| COc1ccc(NC(=O)Cn2cc(C(=O)c3ccccc3OC)c(=O)c3ccc(C)nc32)cc1OC | inactive: -6.89% | – |
| Cn1c(=O)c2c(-c3ccccc3)n(CCCO)cc2n(C)c1=O | inactive: -3.58% | – |
| CCn1c(CN2CCOCC2)nc2cc(NC(=O)c3cccc([N+](=O)[O-])c3)ccc21 | inactive: -23.2% | – |
| COc1ccc(C)cc1NC(=O)c1nnn(-c2c(C)cccc2C)c1C | inactive: -20.2% | – |
| Cc1ccc(CN2CCC(CNC(=O)Nc3ccc(C)c(C)c3)C2)cc1 (centres undefined) | – | inactive |
| N#Cc1ccc(Oc2ccc3c(c2)COB3O)cc1 | inactive: -5.26% | – |
| CC(=O)Nc1nnc2n1CCS2 | – | inactive |
| CC(N)C12CC3CC(CC(C3)C1)C2 (centres undefined) | inactive: -8.3% | – |
| CCOc1ccc(C2C(C(=O)Nc3ccccc3C)=C(C)Nc3nnnn32)cc1 (centres undefined) | inactive: 1.91% | – |
| CCCCc1ccc2nc(NC(=O)OC)[nH]c2c1 | inactive: 5.37% | – |
| CC(C)N(C(=O)Cn1cc(SCC(=O)Nc2ccccc2C(F)(F)F)c2ccccc21)C(C)C | inactive: -4.13% | – |
| CCOC(=O)c1ccc(N2CCN(c3cc(C)ccc3C)CC2)c(NC(=O)Nc2ccc(Cl)cc2)c1 | – | inactive |

| SMILES | activity change, negative = inhibition | outcome |
| --- | --- | --- |
| COc1ccc(C)cc1NC(=O)c1oc2ccc(S(=O)(=O)N3CCC4(CC3)OCCO4)cc2c1C | inactive: -6.34% | – |
| Cc1ccc(C)c(NC(=O)/C(C#N)=C/c2ccc(C(C)C)cc2)c1 | – | inactive |
| O=C(Cn1ccc2cc(S(=O)(=O)N3CCCCC3)ccc21)NCc1ccccc1Cl | inactive: -4% | – |
| CCOCCn1cnc2sc(C(=O)Nc3ccccc3C(=O)OC)c(C)c2c1=O | inactive: 3.29% | – |
| Cc1ccc(-c2nc(CCNC(=O)C(=O)Nc3c(C)cccc3C)cs2)cc1 | inactive: -8.56% | – |
| CN(C)C1CCN(C(=O)c2ccc(NC(=O)Nc3nc(N4CCOCC4)nc(N4CCOCC4)n3)cc2)CC1 | inactive: 22.1% | – |
| COc1cc(NC(=O)CN2Cc3ccccc3C2=O)cc(OC)c1OC | – | inactive |
| COc1ccccc1/C=C/c1nc(C#N)c(NCC(C)C)o1 | inactive: -10.3% | – |
| Cn1c(=O)c2c(c3ccccc31)OC(=O)CC2c1cccc(Cl)c1 (centres undefined) | – | inactive |
| CC(C)Cn1c(=O)c2ccccc2n2c(CCC(=O)Nc3ccc(F)cc3)nnc12 | inactive: -18.2% | – |
| CCCN(CCC)C(=O)c1nn(C)c2c1CSc1ccc(C)cc1-2 | inactive: -2.82% | – |
| CCOc1ccc(NC(=O)Cn2nc(Cc3ccncc3)c3ccccc3c2=O)cc1 | inactive: -0.288% | – |
| COc1ccc(N2C(=O)CSC23C(=O)N(Cc2ccc(C)cc2)c2ccccc23)cc1Cl (centres undefined) | – | inactive |
| CCOc1cccc(CC(=O)N2CCc3c([nH]c4ccccc34)C2c2ccc(SC)cc2)c1OCC (centres undefined) | – | inactive |
| COc1ccc(C(=O)c2oc3ccccc3c2NC(=O)c2cccc(OC)c2)cc1 | inactive: -8.65% | – |
| COc1ccc(-n2ccnc(NCc3ccccc3Cl)c2=O)cc1OC | inactive: -1.52% | – |
| CCOC(=O)c1cc(-c2ccccc2)n(CCCC(=O)Nc2ccccc2C)c1C | inactive: -9.87% | – |
| CC(C)CN(CCNC(=O)c1cc(-c2cccs2)nc2ccccc12)CC(C)C | – | inactive |
| CCOc1ccccc1CNC(=O)c1cnc2sc(N(CC)CC)nn2c1=O | inactive: 0.835% | – |
| COc1ccc(CNC(=O)C(CC(C)C)N2Cc3ccccc3C2=O)cc1 (centres undefined) | inactive: -3.23% | – |
| CCN(CC)CCOC(=O)c1ccc(Nc2c3c(nc4ccccc24)CCC3)cc1 | inactive: -2.69% | – |
| CCc1ccc(NC(=O)CN2C(=O)c3ccccc3Sc3ccc(C(=O)N4CCCC4)cc32)cc1 | inactive: 2.43% | – |
| Clc1cccc(C2=NC(c3cccs3)=Nc3ccc(Br)cc3N2)c1 | inactive: -1.98% | – |
| COc1ccc(CNC(=O)c2sc3nc4n(c(=O)c3c2C)CCCCC4)cc1 | inactive: 4.83% | – |
| Cc1nc(-c2ccc(S(=O)(=O)Nc3ccc(Cl)c(C(F)(F)F)c3)cc2)co1 | inactive: -8.48% | – |

| SMILES | activity change, negative = inhibition | outcome |
| --- | --- | --- |
| CCN(CC)CCOC(=O)c1ccc(NC(=O)c2cc3c(s2)-c2ccccc2OC3)cc1 | inactive: -24.2% | – |
| CC(Oc1ccccc1)C(=O)Nc1nnc2n1CCS2 (centres undefined) | – | inactive |
| CC(=O)N1CCc2nc3sc(C(=O)Nc4ccc(Cl)cc4F)c(N)c3c(C(F)(F)F)c2C1 | – | inactive |
| O=C(c1cc2ccc3cccnc3c2[nH]1)N1CCN(c2ccccc2)CC1 | inactive: 16.3% | – |
| COc1ccc(Cn2c(C(=O)O)c(CNCc3ccc(C)o3)c3ccc(C)cc32)cc1 | inactive: -1.44% | – |
| COc1ccc(C(=O)Nc2ccc(-c3nnc4n3CCCCC4)cc2)cc1OC | inactive: 21.6% | – |
| COC(=O)c1cccc(-n2c(CCC(=O)O)ccc2-c2cccs2)c1 | inactive: 11.4% | – |
| COc1cc(-c2nc3nc(C)cc(C)n3c2Nc2ccc(Cl)cc2)ccc1O | inactive: 1.97% | – |
| CCc1ccccc1N1CC(c2nc3ccccc3n2CCCCOc2ccccc2)CC1=O (centres undefined) | inactive: 1.09% | – |
| O=C(N[C@@H](c1ccccc1)[C@@H]1CCCCN1)c1cccc(C(F)(F)F)c1Cl | inactive: 3.57% | – |
| CCOC(=O)c1ccc2ncc3c(-c4ccccc4)nn(-c4ccc(F)c(Cl)c4)c3c2c1 | inactive: 46.1% | – |
| O=C(NC1CCCC1)c1ccc(CSc2nc3cccnc3n2Cc2ccc(F)cc2)cc1 | inactive: 9.43% | – |
| CC(C)c1nc2ccc(C(=O)NC(C)c3ccccc3)cc2o1 (centres undefined) | – | inactive |
| CCOc1ccc(NC(=O)CSc2ncc3c(n2)-c2ccccc2N(Cc2ccccc2C)S3(=O)=O)cc1 | inactive: 6.58% | – |
| CC(=O)c1ccc(N2CCN(S(=O)(=O)c3ccc4c(c3)C(C)(C)C(=O)N4)CC2)cc1 | inactive: 0.288% | – |
| Oc1ccccc1-c1nc(/C=C/c2ccc(F)cc2)nn1-c1ccccc1 | – | inactive |
| CCCn1c2ccccc2c2cnn(CC(=O)N(CCCOC)Cc3ccco3)c(=O)c21 | inactive: -3.7% | – |
| COc1ccc(-c2nc(SCCOc3ccccc3Cl)n3[nH]c(=O)cc3n2)cc1 | – | inactive |
| COc1ccc(CCNC(=O)CS(=O)Cc2nc(-c3ccccc3F)oc2C)cc1OC (centres undefined) | inactive: -1.7% | – |
| COc1cc(NC(=O)CSc2ncccc2C(=O)OC(C)C)cc(OC)c1 | inactive: -12.5% | – |
| Cc1cc(C(=O)NCc2ccccc2Cl)c2c(C)nn(-c3ccccc3)c2n1 | inactive: -6.26% | – |
| COc1ccc(CCNC(=O)c2ccc3c(c2)ncn3-c2ccc(C)cc2C)cc1OC | inactive: -4.43% | – |
| CCc1ccc(S(=O)(=O)c2nnn3c2nc(NC(C)C)c2sccc23)cc1 | inactive: -6.01% | – |
| Cc1c(C(=O)N2CCN(c3ccccc3)CC2)sc2nc3n(c(=O)c12)CCC3 | inactive: 1.23% | – |
| CC(C)CCNC(=O)CN1C(=O)CSc2ccc(S(=O)(=O)N3CCCCC3)cc21 | inactive: -11.7% | – |

| SMILES | activity change, negative = inhibition | outcome |
| --- | --- | --- |
| CC(=O)c1cc2c(cc1N/C(=N/S(=O)(=O)c1ccc(C)cc1)c1ccc(F)cc1)OCO2 | inactive: 10.3% | – |
| CCN(CC)CCNC(=O)c1ccc2c(=O)n3nc(Nc4ccccc4OC)sc3nc2c1 | – | inactive |
| CCOc1ccc(-c2nc(CSCC(=O)NCc3ccc(Cl)cc3)c(C)o2)cc1 | inactive: -27.4% | – |
| O=S1(=O)c2ccccc2N(Cc2cccc(Cl)c2)c2ccccc21 | – | inactive |
| CCC(C(=O)NCCc1ccccc1)n1nc(C)n2c(cc3sccc32)c1=O (centres undefined) | inactive: 3.32% | – |
| COc1ccc(S(=O)(=O)N2CCN(Cc3nc4ccc(C)cc4o3)CC2)cc1Cl | – | inactive |
| CCCc1nc(SCc2cc(=O)c3ccc(C)c(C)c3[nH]2)n[nH]1 | – | inactive |
| CCc1ccccc1NC(=O)C1CCCN(C(=O)c2cnn(-c3ccccc3)c2-n2cccc2)C1 (centres undefined) | – | inactive |
| CCOC(=O)c1c(-c2ccc(C)cc2)csc1NC(=O)c1nc(SC(C)C)ncc1Cl | inactive: -4.66% | – |
| Cc1ccc(NC(=O)c2ccc(-n3c(C)nnc3C)cc2)cc1F | – | inactive |
| COc1cc2nc(NCc3ccc(C)cc3)n3nc(-c4ccccc4)nc3c2cc1OC | – | inactive |
| CCc1cc2c(cc3c(=O)n(CC(=O)NC4CCC(C)CC4)ncn32)s1 (centres undefined) | inactive: 20.4% | – |
| COc1cc(OC)c(NS(=O)(=O)c2ccc3c(c2)CCCN3C(C)=O)cc1Cl | inactive: -5.15% | – |
| CCOc1ccccc1NC(=O)c1c(NC(=O)c2cccc(C)c2)sc2c1CCC2 | inactive: 12.1% | – |
| Cc1ccc(-c2cc(C(F)(F)F)n3nc(C(=O)NCC45CC6CC(CC(C6)C4)C5)cc3n2)cc1 | inactive: -8.61% | – |
| CCOc1ccc(N2CC(NC(=O)c3ccc(S(=O)(=O)N4CCCCC4)cc3)CC2=O)cc1 (centres undefined) | inactive: -7.02% | – |
| O=C(Cc1ccccc1)NCCc1csc2nc(-c3ccc(Cl)cc3)nn12 | inactive: 3.7% | – |
| COc1ccc(CNC(=O)c2c3c(nc4ccccc24)C(=O)N(C2CCCCC2)C3)cc1 | inactive: 30.3% | – |
| COC(=O)c1ccc(CSc2nc3c([nH]c4ccccc43)c(=O)n2-c2ccc(OC)cc2)o1 | inactive: -7.05% | – |
| COc1cccc(CNC(=O)c2nn(-c3ccc(C)cc3)c(=O)c3c2c2ccccc2n3C)c1 | – | inactive |
| CCOC(=O)c1scc(-c2ccccc2)c1S(=O)(=O)Nc1cc(Cl)c(OC)cc1OC | inactive: -2.18% | – |
| CC1CCc2c(sc(NC(=O)C3c4ccccc4Oc4ccccc43)c2C(=O)OC(C)C)C1 (centres undefined) | inactive: 2.19% | – |
| COc1ccc(C2CC(=O)N(Cc3cccc(F)c3)c3ccccc3S2)cc1 (centres undefined) | – | inactive |
| Cc1ccc(S(=O)(=O)NCc2nc(-c3cccc(C)c3)no2)cc1 | inactive: -0.642% | – |
